In article PMC4336329 (PLoS ONE, 2015):
About 14,000 (4.5%) of roughly 310,000 compounds showed an effect of 50% or more. Effects have a minus sign here. The list shows a part of the results.

Biological target: human ether-à-go-go-related gene (hERG) potassium channel (human, UniProt Q12809)
Experiment: primary screen, population patch clamp on CHO cells stably expressing hERG
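Further: peak tail current of the secondary pulse compared with the same well before compound.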

Chain of human ether-à-go-go-related gene (hERG) potassium channel (Q12809 whole entry, looked up): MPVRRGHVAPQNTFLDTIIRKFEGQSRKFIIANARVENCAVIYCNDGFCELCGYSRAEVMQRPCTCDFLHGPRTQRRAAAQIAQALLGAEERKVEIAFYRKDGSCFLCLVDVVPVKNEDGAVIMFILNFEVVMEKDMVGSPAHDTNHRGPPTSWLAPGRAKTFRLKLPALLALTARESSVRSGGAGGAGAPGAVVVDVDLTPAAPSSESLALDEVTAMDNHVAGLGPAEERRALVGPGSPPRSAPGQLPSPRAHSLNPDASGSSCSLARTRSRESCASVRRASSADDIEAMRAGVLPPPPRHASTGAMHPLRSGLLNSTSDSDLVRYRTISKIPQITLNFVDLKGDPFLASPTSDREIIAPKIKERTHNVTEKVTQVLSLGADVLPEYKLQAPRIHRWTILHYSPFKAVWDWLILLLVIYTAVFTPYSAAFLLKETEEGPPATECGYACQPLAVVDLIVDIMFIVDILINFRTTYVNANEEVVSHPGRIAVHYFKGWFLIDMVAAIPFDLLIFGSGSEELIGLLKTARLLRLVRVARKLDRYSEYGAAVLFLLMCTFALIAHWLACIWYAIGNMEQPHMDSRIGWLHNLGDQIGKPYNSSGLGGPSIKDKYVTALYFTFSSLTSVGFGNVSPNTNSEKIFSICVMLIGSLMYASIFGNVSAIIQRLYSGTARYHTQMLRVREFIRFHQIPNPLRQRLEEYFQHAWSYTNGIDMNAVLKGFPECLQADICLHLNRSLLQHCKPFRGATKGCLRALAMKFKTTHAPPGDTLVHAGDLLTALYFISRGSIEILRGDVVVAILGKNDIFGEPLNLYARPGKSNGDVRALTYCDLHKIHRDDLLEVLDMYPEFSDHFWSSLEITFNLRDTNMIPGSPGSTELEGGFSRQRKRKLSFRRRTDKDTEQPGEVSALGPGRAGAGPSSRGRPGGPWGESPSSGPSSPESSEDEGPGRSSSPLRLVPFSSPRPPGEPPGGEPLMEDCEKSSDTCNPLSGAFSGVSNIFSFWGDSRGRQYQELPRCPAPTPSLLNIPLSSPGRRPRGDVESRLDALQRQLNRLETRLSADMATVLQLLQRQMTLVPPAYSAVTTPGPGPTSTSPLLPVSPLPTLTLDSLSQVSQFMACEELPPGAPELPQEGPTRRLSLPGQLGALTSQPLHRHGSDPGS

SMILES | hERG current change (%, negative = inhibition) at 10uM [%]
CCCCOCCOCCOCCCC | 13.4
Cc1c([N+](=O)[O-])c([N+](=O)[O-])nn1CC(=O)NCCc1ccccc1 | 13.2
CCOC(=O)c1[nH]c2ccccc2c1NC(=O)c1ccco1 | 0.716
Cc1ccc(Nc2nc(N)c3ccccc3n2)cc1C.Cl | -1.59
CC(C)Oc1ccc(CC2(CCc3ccncc3)C(=O)NC(=O)NC2=O)cc1 | 5.71
CCn1c(=O)c(=O)[nH]c2cc(C(=O)N3CCN(Cc4ccc5c(c4)OCO5)CC3)ccc21 | 22.4
CCNC(=O)c1ccc(NC(=O)CC2SC(N3CCCC3)=NC2=O)cc1 (stereo not drawn) | 1.05
CCCOc1ccc(CNC(=O)C2CCN(c3nn4c(=O)cc(C)nc4s3)CC2)cc1 | -21.3
O=C(Nc1ccc(Br)cc1)c1cccc(S(=O)(=O)Nc2ccccn2)c1 | 16
COc1ccc(-c2cn[nH]c2-c2ccc(OCC(=O)NN)cc2O)cc1 | 17.4
COc1ccc(CCNC(=O)CCn2c(=O)c3cccn3c3cccnc32)cc1OC | 1.63
CC(C)(C)c1ccc(C(=O)NC(=S)NCc2ccco2)cc1 | -3.98
O=C(NCc1ccc(-c2csnn2)cc1)C1CC1 | 7.09
O=C(CC(Nc1cccc(Cl)c1Cl)C(=O)OCC(=O)c1cccs1)c1ccccc1 (stereo not drawn) | -5.59
Cc1ccc(S(=O)(=O)N(C)Cc2cc3ccccc3[nH]c2=O)cc1 | -15.7
CSc1ccc(/C=N\NC(=O)COc2ccc(Cl)cc2Br)cc1 | -1.53
CSc1ccccc1C(=O)Nc1cc([N+](=O)[O-])ccc1C | -4.66
CNC(=O)c1nnc(Cc2ccc(Cl)cc2)o1 | 3.2
COC(=O)C1=C(c2ccc3ccccc3c2)C[C@@H]2CC[C@H]1N2C(=O)NCc1ccc(C(F)(F)F)cc1 | 16

SMILES | hERG current change (%, negative = inhibition) at 10uM [%]
O=C(Oc1ccc(-c2ccccc2)cc1)N1CCCCC1 | -1.58
CCC1Oc2ccc(C)cc2N(CC(=O)NCc2cccs2)C1=O (stereo not drawn) | 4.8
CC(=O)c1cc(-c2ccccc2)[nH]c1N1CCCC1 | -5.68
CCc1ccccc1NC(=O)c1cc(-c2ccc(OC)cc2)on1 | 15
COc1ccc(CNC(=O)Nc2ccc3c(c2)N(C)C(=O)CS3)cc1 | -0.138
COc1c(C(=O)Nc2nccs2)ccc2ccccc12 | -22
COc1ccc(-c2csc(NC(=O)C(CC(=O)O)N3CCOCC3)n2)cc1 (stereo not drawn) | 0.676
COc1cc(CC2COC(=O)C2(O)Cc2ccc(O)c(OC)c2)ccc1O (stereo not drawn) | 7.65
C/C(=N\Nc1cc(Cl)nc(C)n1)c1ccc(Cl)c(Cl)c1 | -7.27
O=c1c(Br)c(N2CCCC2)cnn1-c1ccccc1 | 4.57
Cc1ccccc1NC1=NC(=S)N(c2ccccc2)C12CCCCC2 | 10.6
COC(=O)C1=NNC2C(=O)N(c3ccc(C)cc3)C(=O)C12 (stereo not drawn) | 32.2
COc1cc2cc(CN(CCCO)S(=O)(=O)c3ccccc3)c(=O)[nH]c2cc1OC | -16.7
O=C(CSc1ccc(-c2cccs2)nn1)NCc1ccccc1Cl | -28.7
Cc1cc(C(=O)CS(=O)(=O)c2ccc(Cl)cc2)cc(C)c1O | 16.6
O=S(=O)(NC1CCCC1)c1ccc(Br)s1 | -1.55
S=c1[nH]nc(-c2ccccn2)n1/N=C/c1ccccc1 | 14.3
CCOC(=O)c1c(NC(=O)CSc2c[nH]c3ccccc23)sc2c1CCCC2 | 15.5
CCN(CC)S(=O)(=O)c1ccc(N2CCOCC2)c(NC(=O)c2cc([N+](=O)[O-])ccc2Cl)c1 | 17.2

SMILES | hERG current change (%, negative = inhibition) at 10uM [%]
CC(=O)Nc1ccc(S(=O)(=O)N(C)CC(=O)OC2CCCCC2=O)cc1 (stereo not drawn) | -5.35
O=C(CSc1nc2ccccc2c(=O)[nH]1)N1CCN(c2ccccc2F)CC1 | 9.44
COc1ccc(S(=O)(=O)N2CCOCC2)cc1C(=O)NC1CCCCC1 | 6.05
Nc1nc(COc2ccc(Cl)cc2)cs1 | -0.505
C=CCNC(=O)c1ccccc1NC(=O)c1ccccc1SC | -19.8
CCc1nnc(NC(=O)NCN2C(=O)C3C4C=CC(C4)C3C2=O)s1 (stereo not drawn) | 1.86
Cc1ccc(CNC(=O)C(=O)NCC2OCCN2C(=O)c2ccc(Cl)cc2)cc1 (stereo not drawn) | -13
C[n+]1cccc(C(=O)N/N=C/c2ccc3c(c2)OCO3)c1.[I-] | 16.9
CC1CCCN(S(=O)(=O)c2ccc(NC(=O)CN3CCCCC3)cc2)C1 (stereo not drawn) | -37.6
Cc1noc(C(=O)Nc2cc(Cl)ccc2O)c1Cl | 31.5
O=C(Cc1c(F)cccc1Cl)Nc1ccc(S(=O)(=O)Nc2nccs2)cc1 | 16.4
Cc1ccc(NC(=O)c2nc[nH]c2C(=O)N(C)Cc2ccccc2)cc1 | -4.42
COc1ccccc1Oc1c(C)oc2c(CN3CCN(CCO)CC3)c(O)ccc2c1=O | 14.8
Cc1cccc2c(CC(=O)O)noc12 | -0.934
COc1ccc(CCNC(=O)c2ccc3c(c2)NC(=O)C(CSCc2cc(C)ccc2C)N3)cc1OC (stereo not drawn) | 12.2
CC(C)C(NC(=O)c1ccccc1NC(=O)c1ccccc1)C(=O)NNC(=O)c1ccncc1 (stereo not drawn) | 2.91
CCCn1nnnc1SCC(=O)Nc1nnc(CC)s1 | 12
Cc1ccccc1N(C)S(=O)(=O)c1ccc2[nH]cc(C(=O)NCC3CCCO3)c(=O)c2c1 (stereo not drawn) | -24
CC1Oc2ccccc2C=C1/C=N/NC(=O)[C@@H](C)NC(=O)OC(C)(C)C (stereo partly drawn) | -8.91
